Screen size: about 230,000 compounds; about 3,600 (1.6%) were called active. The shares of active, inactive and inconclusive entries below differ from those in the screen. Calls follow the shape of the dose curve; as a rule, active = well fitted inhibition curve with a large enough effect (not every such curve was filed as active); inconclusive = small, poorly fitted or top-dose-only effect, or another doubt; inactive = no such curve, though single readings can be large or run the other way. Potencies beside an inconclusive call are fits to weak or partial responses and may not hold up. Where a structure was tested more than once in an assay, its records may differ in their call.
What follows are compounds tested against Lysine-specific demethylase 4E (Homo sapiens) (UniProt B2RXH2) (assay: qHTS Assay for Inhibitors of Human Jumonji Domain Containing 2E (JMJD2E)). Conditions: JMJD2E catalytic domain, FDH-coupled NADH fluorescence (FDH is formaldehyde dehydrogenase); series mostly up to 57.1 µM; activity change, negative = inhibition: at the top concentration.
Also: nearly all actives have a fitted effect of over 50% in size.
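For activity change, negative = inhibition in this document: 0% = wells with enzyme and -100% = buffer wells without enzyme.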
Potency is read from the fitted curve at half-maximal effect; tags tell the direction and shape of the fitted curve.

UniProt B2RXH2, sequence (B2RXH2 whole entry, looked up, the tested form may be a part): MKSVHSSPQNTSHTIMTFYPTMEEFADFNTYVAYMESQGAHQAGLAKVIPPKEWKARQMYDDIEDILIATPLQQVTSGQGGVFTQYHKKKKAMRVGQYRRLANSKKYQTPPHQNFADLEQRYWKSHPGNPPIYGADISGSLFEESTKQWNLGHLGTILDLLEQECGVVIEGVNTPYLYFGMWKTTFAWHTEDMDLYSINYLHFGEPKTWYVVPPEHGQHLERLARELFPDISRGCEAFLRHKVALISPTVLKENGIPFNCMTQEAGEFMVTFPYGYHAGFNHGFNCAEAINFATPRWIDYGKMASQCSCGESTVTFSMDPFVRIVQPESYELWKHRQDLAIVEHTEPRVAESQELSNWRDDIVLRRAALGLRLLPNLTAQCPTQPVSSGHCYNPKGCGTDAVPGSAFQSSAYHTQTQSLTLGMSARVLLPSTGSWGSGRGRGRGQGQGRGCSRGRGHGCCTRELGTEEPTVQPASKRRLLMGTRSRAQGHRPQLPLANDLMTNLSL

Q: With Nc1nnc(CC(=O)N/N=C/c2ccc(-c3cccc(C(=O)O)c3)o2)s1 as the compound, how does the Potency read?
A: inconclusive: 31.6 µM [inhibitor, single point]

Q: With CN1CCN(C(=O)c2cc3nc(-c4ccccc4)cc(C(F)(F)F)n3n2)CC1 as the compound, how does the Potency read?
A: inconclusive: 28.2 µM [inhibitor, single point]

Q: CCOc1cc(CNc2ccc(N3CCCCC3)cc2)cc(Br)c1OCC(=O)NC(C)(C)C was tested. Which Potency did it give?
A: active: 3.16 µM

Q: Which “activity change, negative = inhibition” value does the source give for Cc1ccc(SCC(=O)Nc2ccccc2C(=O)O)cc1 here?
A: inactive: 8.03%

Q: For c1ccc(-c2nnc(-c3ccco3)n2-c2ccccc2)cc1, which Potency is on record?
A: inconclusive: 17.8 µM [inhibitor, partial curve]

Q: O=C(Cc1c(F)cccc1Cl)NCC1CCCO1 (stereo unspecified) was tested. Which “activity change, negative = inhibition” value did it give?
A: inactive: 1.94%

Q: For O=C(O)c1cc2c(s1)CCCC2, which “activity change, negative = inhibition” value is on record?
A: inactive: 7.92%

Q: How did the “activity change, negative = inhibition” value turn out when O=C(NC(Cc1ccccc1)C(=O)O)/C(=C\c1ccco1)NC(=O)c1ccc(Br)cc1 (stereo unspecified) was run?
A: inactive: 0.972%

Q: How did the Potency turn out when Cc1cc(C=O)c(C)n1-c1cc(C(=O)O)cc(C(=O)O)c1 was run?
A: inconclusive: 35.5 µM [inhibitor, single point]

Q: For O=C(CSc1nc(-c2ccccc2)nc2ccc(F)cc12)Nc1ccc(C(=O)O)cc1, which “activity change, negative = inhibition” value is on record?
A: inactive: -9.39%

Q: Cc1cc(NS(=O)(=O)c2ccc(NC(=O)/C=C/c3ccc(C)o3)cc2)nc(C)n1 was tested. Which Potency did it give?
A: inconclusive: 39.8 µM [inhibitor, single point]

Q: With COCCn1c(=O)[nH]c2cc(C(=O)NCc3ccccc3)ccc2c1=O as the compound, how does the Potency read?
A: inconclusive: 28.2 µM [inhibitor, single point]

Q: With COC(=O)c1ccc(C23CC4(C2)[C@H](CN(Cc2ccc(-c5ccccc5)cc2)[C@@H]4c2ccccc2)C3c2ccccc2)cc1 (stereo partly specified) as the compound, how does the Potency read?
A: inconclusive: 39.8 µM [inhibitor, single point]

Q: How did the “activity change, negative = inhibition” value turn out when CC1Cc2ccccc2N1C(=O)COc1ccc2c(c1)OCO2 (stereo unspecified) was run?
A: inactive: -2.82%

Q: O=S(=O)(c1ccc(Cl)cc1)N1c2ccccc2Oc2nc3ccccc3nc21 was tested. Which “activity change, negative = inhibition” value did it give?
A: inactive: -28.2%

Q: CC(C)(C)NC(=O)Cn1c(SCC(N)=O)nc2ccccc21 was tested. Which “activity change, negative = inhibition” value did it give?
A: inactive: 5.84%

Q: CN(C)c1cccc(C(=O)Nc2cc(C(F)(F)F)ccc2-n2cnc3ccccc32)c1 was tested. Which “activity change, negative = inhibition” value did it give?
A: inactive: -12.4%

Q: How did the Potency turn out when COCCn1c(N)c(S(=O)(=O)c2cccs2)c2nc3ccccc3nc21 was run?
A: inconclusive: 31.6 µM [inhibitor, partial curve]

Q: How did the Potency turn out when Cc1cccn2c(=O)c3cc(C(N)=S)c(=N)n(CCCN4CCOCC4)c3nc12 was run?
A: inconclusive: 35.5 µM [inhibitor, partial curve]

Q: How did the “activity change, negative = inhibition” value turn out when COc1ccc(CCNC(=S)Nc2ccccc2C)cc1 was run?
A: inactive: 0.178%

Q: For C/C(=N\OCC(=O)N/N=C/c1ccccc1O)c1cccs1, which Potency is on record?
A: active: 22.4 µM

Q: How did the “activity change, negative = inhibition” value turn out when O=C(Nc1ccc(Cl)c([N+](=O)[O-])c1)c1ccc(NCCCN2CCOCC2)c([N+](=O)[O-])c1 was run?
A: inactive: -3.59%

Q: For c1ccc(N2OCC3Cn4c(nc5ccccc54)C32)cc1 (stereo unspecified), which Potency is on record?
A: inconclusive: 39.8 µM [inhibitor, single point]

Q: For Cc1ccc(-c2nc(C#N)c(NCc3cccc4c3OCO4)o2)cc1, which Potency is on record?
A: inconclusive: 25.1 µM [inhibitor, partial curve]

Q: Cc1ccc(C)c2c3c([nH]c12)-c1nonc1CC3 was tested. Which Potency did it give?
A: inconclusive: 35.5 µM [inhibitor, single point]

Q: How did the Potency turn out when CCOCCCNC(=O)c1c(N)n(-c2ccc(S(N)(=O)=O)cc2)c2nc3ccccc3nc12 was run?
A: inconclusive: 2.51 µM [inhibitor, full curve]

Q: With N#CC1=C(SCc2ccccc2)NC(=O)CC1c1ccco1 (stereo unspecified) as the compound, how does the “activity change, negative = inhibition” value read?
A: inactive: -7.37%

Q: How did the “activity change, negative = inhibition” value turn out when COC(=O)N(C)c1nc2ccccc2s1 was run?
A: inactive: 6.84%

Q: With CCC(C)n1c(-c2ccco2)nc2nc3ccccc3nc21 (stereo unspecified) as the compound, how does the Potency read?
A: inconclusive: 31.6 µM [inhibitor, partial curve]

Q: Which Potency does the source give for CCOC(=O)c1nn(-c2ccc(F)cc2)c2c1CC/C2=C/c1ccccc1 here?
A: inconclusive: 2.82 µM [inhibitor, partial curve]

Q: For Cc1ccc(CN2C(=O)CCC2C(=O)NCCN(CC(C)C)CC(C)C)cc1 (stereo unspecified), which Potency is on record?
A: inconclusive: 39.8 µM [inhibitor, single point]

Q: Which Potency does the source give for CCC(C)NC(=O)Cn1cnc2sc(C)c(S(=O)(=O)N3CCN(c4ncccn4)CC3)c2c1=O (stereo unspecified) here?
A: inconclusive: 39.8 µM [inhibitor, single point]

Q: With Cc1ccc2nc(-c3ccc(NC(=O)COC(=O)c4ccc(Br)o4)cc3)sc2c1 as the compound, how does the Potency read?
A: inconclusive: 28.2 µM [inhibitor, partial curve]

Q: How did the “activity change, negative = inhibition” value turn out when CSC1=NC(C)(C)C=C(/C=C/c2c(Cl)cccc2Cl)N1 was run?
A: inactive: 4.95%

Q: NS(=O)(=O)c1ccc(NC(=S)NCC2CCCO2)cc1 (stereo unspecified) was tested. Which “activity change, negative = inhibition” value did it give?
A: inactive: 0.665%

Q: CC(C)CCNC(=O)c1cnn2c(C(F)(F)F)cc(-c3ccco3)nc12 was tested. Which Potency did it give?
A: inconclusive: 31.6 µM [inhibitor, partial curve]

Q: With COC(=O)c1ccc(-c2ccco2)n1Cc1ccccc1Cl as the compound, how does the Potency read?
A: inconclusive: 35.5 µM [inhibitor, single point]

Q: Which Potency does the source give for CCC1(C)Cc2c(C#N)c(N)sc(=S)c2CO1 (stereo unspecified) here?
A: inconclusive: 28.2 µM [inhibitor, partial curve]

Q: With COC(=O)CCC(=O)OC1(C)C(=O)C=C2C=C(C3CC3)N(C3CCCCC3)C=C2C1=O (stereo unspecified) as the compound, how does the Potency read?
A: active: 15.8 µM

Q: What about the activity change, negative = inhibition of the same compound?
A: inactive: -6.62% [at 11.4 µM]

Q: Which Potency does the source give for COc1ccc(S(=O)(=O)Nc2ccccc2C(N)=O)cc1OC here?
A: inconclusive: 35.5 µM [inhibitor, partial curve]

Q: CCN(CC)S(=O)(=O)c1ccc(-c2nnco2)cc1 was tested. Which “activity change, negative = inhibition” value did it give?
A: inactive: 6.06%

Q: How did the “activity change, negative = inhibition” value turn out when Cc1ccc(CN(C(=O)c2cc(=O)c3cc(C)cc(C)c3o2)C2CCS(=O)(=O)C2)cc1 (stereo unspecified) was run?
A: inactive: -2.17%

Q: How did the “activity change, negative = inhibition” value turn out when COc1ccccc1NC(=O)c1cccc(S(=O)(=O)N2CCOCC2)c1 was run?
A: inactive: 0.766%

Q: How did the Potency turn out when CCc1ccc2c(O)c3c(cc2c1C(=O)OC)C(=O)c1c(O)ccc(O)c1C3=O was run?
A: active: 2.82 µM

Q: Cc1[nH]c2ccccc2c1/C=N/NC(=O)CNC(=O)c1ccc2c(c1)OCCO2 was tested. Which “activity change, negative = inhibition” value did it give?
A: inactive: 4.95%

Q: Which “activity change, negative = inhibition” value does the source give for CCOC(=O)Nc1c(C(=O)OC)[nH]c2cc(OC)ccc12 here?
A: inactive: -28.2%

Q: Cc1nc(NC(=O)/C=C/c2ccccc2)sc1C(=O)Nc1ccc(Cl)cc1 was tested. Which Potency did it give?
A: inconclusive: 25.1 µM [inhibitor, partial curve]

Q: CS(=O)(=O)Nc1ccc(-c2n[nH]c(=S)n2-c2ccccc2)cc1 was tested. Which Potency did it give?
A: inconclusive: 39.8 µM [inhibitor, single point]

Q: With CC(C)CCCCCCNC(=S)Nc1ccc(S(=O)(=O)N2CCOCC2)cc1 as the compound, how does the “activity change, negative = inhibition” value read?
A: inactive: -4.97%

Q: With O=c1oc2ccccc2c2c1ncn2C1CCCCC1 as the compound, how does the Potency read?
A: inconclusive: 39.8 µM [inhibitor, single point]

Q: With CCc1cc2c(=O)c(-c3nc(C)cs3)c(CCCC(=O)O)oc2cc1O as the compound, how does the Potency read?
A: inconclusive: 22.4 µM [inhibitor, partial curve]

Q: With Cc1ccc(-c2cn3cc(C)ccc3n2)cc1 as the compound, how does the Potency read?
A: inconclusive: 5.01 µM [inhibitor, full curve]

Q: COC(=O)c1[nH]c2cc(C)ccc2c1NC(=O)CN1CCN(c2ccccc2OC)CC1 was tested. Which Potency did it give?
A: inconclusive: 28.2 µM [inhibitor, single point]

Q: Which Potency does the source give for O=C1NCCN(Cc2ccc(Cl)c(F)c2)C1CC(=O)N1CCCCO1 (stereo unspecified) here?
A: inconclusive: 28.2 µM [inhibitor, partial curve]

Q: With COC(=O)C1=C(CN2CCCc3ccccc32)NC(=O)NC1c1ccc(F)cc1 (stereo unspecified) as the compound, how does the Potency read?
A: inconclusive: 39.8 µM [inhibitor, single point]

Q: With O/N=C/c1cccnc1Sc1ccccc1 as the compound, how does the “activity change, negative = inhibition” value read?
A: inactive: -11.1%

Q: CCC(C)(C)C1CCC(=NNc2nc3ccccc3[nH]2)CC1 (stereo unspecified) was tested. Which “activity change, negative = inhibition” value did it give?
A: inactive: -12.4%

Q: For COc1cc(/C=C/c2nc3ccccc3s2)cc(OC)c1O, which Potency is on record?
A: inconclusive: 12.6 µM [inhibitor, partial curve]

Q: For COC(=O)c1ccc(CN(c2ccccn2)S(=O)(=O)c2ccccc2)cc1, which Potency is on record?
A: inconclusive: 31.6 µM [inhibitor, partial curve]

Q: How did the Potency turn out when CC(=O)/C=C1\N(C)c2ccc(C)cc2C1(C)C was run?
A: inconclusive: 28.2 µM [inhibitor, partial curve]

Q: How did the Potency turn out when CC1CCCCN1CCn1cnc2c([nH]c3ccccc32)c1=O (stereo unspecified) was run?
A: inconclusive: 17.8 µM [inhibitor, partial curve]

Q: CCCS(=O)(=O)N1CCCC(C(=O)N2CCN(c3ccccn3)CC2)C1 (stereo unspecified) was tested. Which Potency did it give?
A: inconclusive: 28.2 µM [inhibitor, partial curve]

Q: For O=C(Cc1cccs1)N/N=C/C=C/c1ccccc1, which “activity change, negative = inhibition” value is on record?
A: inactive: 3.89%

Q: With Cc1cccc(CSc2nncc(=O)[nH]2)c1 as the compound, how does the Potency read?
A: inconclusive: 39.8 µM [inhibitor, single point]

Q: How did the “activity change, negative = inhibition” value turn out when COC(=O)C1=C(C)N(CCc2ccc(OC)cc2)C(=O)C1 was run?
A: inactive: 1.72%

Q: CCCCSc1c(C)c2cc3c(cc2[nH]c1=O)OCO3 was tested. Which Potency did it give?
A: inconclusive: 3.98 µM [inhibitor, full curve]

Q: O=C(N/N=C/c1ccc(OC2CSC2)cc1)c1ccc(CN2CCOCC2)cc1 was tested. Which Potency did it give?
A: inconclusive: 39.8 µM [inhibitor, single point]

Q: For CCOC(=O)c1ccc(NC(=S)NN)cc1, which Potency is on record?
A: inconclusive: 39.8 µM [inhibitor, single point]

Q: Which “activity change, negative = inhibition” value does the source give for O=C(CNC(=S)N(Cc1ccccc1)Cc1cccnc1)NC1CCCCC1 here?
A: inactive: 5.29%

Q: For COc1cc2cc(CN(C(=O)NC3CCCCC3)C3CCCC3)c(=O)[nH]c2cc1OC, which Potency is on record?
A: inconclusive: 28.2 µM [inhibitor, partial curve]

Q: For COc1cccc(C2SCC(=O)N2c2ccc(C)cc2)c1OC (stereo unspecified), which “activity change, negative = inhibition” value is on record?
A: inactive: -1.87%

Q: Which Potency does the source give for COc1cc2c(cc1OC)C(CSc1ccccc1C(=O)O)=NC(C)(C)C2 here?
A: inconclusive: 31.6 µM [inhibitor, partial curve]

Q: CCOC(=O)CSc1nc2c(sc3ccccc32)c(=O)n1CCCN1CCOCC1 was tested. Which Potency did it give?
A: inconclusive: 31.6 µM [inhibitor, single point]

Q: How did the “activity change, negative = inhibition” value turn out when Cc1cc(N2CCOCC2)nc(SCC(=O)c2ccc(Cl)cc2)n1 was run?
A: inactive: 9.89%

Q: Which Potency does the source give for COc1ccccc1CNCC(=O)NCc1ccc(C)cc1 here?
A: inconclusive: 25.1 µM [inhibitor, single point]

Reference: PubChem BioAssay AID2147 (National Center for Advancing Translational Sciences (NCATS), 2009)
